# Source: PubChem BioAssay AID504339 (National Center for Advancing Translational Sciences (NCATS), 2011)
# Hit rate of the full screen: of about 390,000 compounds, about 17,000 (4.4%) were called active. The shares of active, inactive and inconclusive entries below differ from those in the screen. Calls follow the shape of the dose curve; as a rule, active = well fitted inhibition curve with a large enough effect; inconclusive = small, poorly fitted or top-dose-only effect; inactive = no such curve, though single readings can be large or run the other way. Potencies of inconclusive entries are doubtful fits and often do not repeat.
# Molecular target: Lysine-specific demethylase 4A (Homo sapiens) (UniProt O75164)
# Experiment: qHTS Assay for Inhibitors of JMJD2A-Tudor Domain; also: nearly all actives have a fitted effect of over 50% in size
# Details: AlphaScreen JMJD2A-Tudor / H3K4me3 peptide binding; activity change, negative = inhibition: at 114 µM (top of the series)
# % is scaled to controls: 0 for no effect and ±100 for the full control effect; potency is read from the fitted curve at half-maximal effect; tags tell the direction and shape of the fitted curve.
# UniProt O75164, sequence (O75164 whole entry, looked up, the tested form may be a part): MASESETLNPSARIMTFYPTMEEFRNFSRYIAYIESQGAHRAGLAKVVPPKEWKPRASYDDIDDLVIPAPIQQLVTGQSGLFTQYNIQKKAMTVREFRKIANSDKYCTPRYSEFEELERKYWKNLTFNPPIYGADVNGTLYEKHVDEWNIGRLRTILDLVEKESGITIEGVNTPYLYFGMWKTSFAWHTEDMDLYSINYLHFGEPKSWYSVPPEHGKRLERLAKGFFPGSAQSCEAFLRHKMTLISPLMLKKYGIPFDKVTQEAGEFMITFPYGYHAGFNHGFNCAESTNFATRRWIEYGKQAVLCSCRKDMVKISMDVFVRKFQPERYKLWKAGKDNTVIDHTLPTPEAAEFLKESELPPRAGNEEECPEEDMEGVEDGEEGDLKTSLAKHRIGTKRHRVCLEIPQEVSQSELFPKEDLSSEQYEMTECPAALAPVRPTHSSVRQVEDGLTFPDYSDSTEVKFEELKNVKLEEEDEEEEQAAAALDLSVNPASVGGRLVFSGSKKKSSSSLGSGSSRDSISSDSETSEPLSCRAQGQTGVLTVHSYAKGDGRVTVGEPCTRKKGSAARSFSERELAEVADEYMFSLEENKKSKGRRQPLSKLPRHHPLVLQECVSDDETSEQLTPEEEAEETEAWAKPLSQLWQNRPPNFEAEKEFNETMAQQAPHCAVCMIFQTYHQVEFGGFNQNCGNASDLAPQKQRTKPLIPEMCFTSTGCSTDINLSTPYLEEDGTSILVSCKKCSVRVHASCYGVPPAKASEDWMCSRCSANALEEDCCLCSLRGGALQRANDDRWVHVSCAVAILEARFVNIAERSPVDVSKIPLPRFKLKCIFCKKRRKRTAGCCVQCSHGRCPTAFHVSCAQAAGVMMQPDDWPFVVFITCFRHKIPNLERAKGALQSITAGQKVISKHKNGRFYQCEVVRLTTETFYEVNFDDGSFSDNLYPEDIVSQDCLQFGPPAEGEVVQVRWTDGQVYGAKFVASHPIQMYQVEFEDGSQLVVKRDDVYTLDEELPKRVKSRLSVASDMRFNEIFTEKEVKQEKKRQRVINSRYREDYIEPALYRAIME
Structure (SMILES),Potency,"activity change, negative = inhibition"
CCCCOc1ccc(C(=O)NNC(=S)NC(=O)CC)cc1,"inconclusive: 56.2 µM [inhibitor, single point]",–
COc1cccc(Nc2ccc(Nc3cccc(OC)c3)nn2)c1,"inconclusive: 50.1 µM [inhibitor, partial curve]",–
O=C(NCc1n[nH]c(=S)n1-c1cccc(Cl)c1)c1ccc(S(=O)(=O)N2CCCCC2)cc1,–,inactive: -30.7%
Cc1ccc(NC(=S)NCCc2c[nH]c3ccccc23)cc1,"inconclusive: 79.4 µM [inhibitor, partial curve]",–
CN(CC(=O)NCc1ccc(Cl)cc1)S(=O)(=O)c1ccc2[nH]c3c(c2c1)CCCC3,"inconclusive: 22.4 µM [inhibitor, full curve, poor fit]",–
CCOC(=O)/C(CCC[N+](C)(CC)CC)=N\O,"inconclusive: 63.1 µM [inhibitor, single point]",–
Cc1ccc2c(c1)c1c(c(=O)n(-c3cccc(Cl)c3)c(=O)n1CC(=O)NCCC1=CCCCC1)n2C,–,inactive: -9.56%
CC(C)n1cc(C(=O)N2CCCC(Nc3ccc(F)c(F)c3)C2)cn1 (stereo not given),–,inactive: -3.11%
CC(C)CC(NC(N)=O)C(=O)Nc1ccc(Oc2ccccc2)cc1 (stereo not given),–,inactive: -20.3%
COc1ccccc1N1CCN(C(=O)c2cnn(-c3cccc(Cl)c3)c2C2CCN(C(=O)OC(C)(C)C)CC2)CC1,"inconclusive: 56.2 µM [inhibitor, partial curve]",–
O=C(N/N=C/c1ccc(O)c(O)c1O)/C(=C/c1ccc([N+](=O)[O-])cc1)NC(=O)c1ccccc1,active: 31.6 µM,–
COc1ccc(OC)c(C2CC(=O)N3CN(c4cccc(Cl)c4C)CSC3=C2C#N)c1 (stereo not given),active: 17.8 µM,–
CCOC(=O)/C=C/C(=O)Nc1cccc([N+](=O)[O-])c1,"inconclusive: 39.8 µM [inhibitor, single point]",–
CCc1nnc(NC(=O)CSc2nncc(=O)n2N)s1,"inconclusive: 56.2 µM [inhibitor, partial curve, poor fit]",–
CC(NC(=O)C1CCN(S(=O)(=O)c2ccccc2)CC1)c1ccccc1 (stereo not given),"inconclusive: 89.1 µM [inhibitor, single point]",–
O=C(c1ccc([N+](=O)[O-])cc1)N1CCCC1,–,inactive: 3.34%
CNc1ccc(Br)cc(C(=O)/C=C/c2ccc(OC)cc2OC)c1=O,active: 31.6 µM,–
COc1cc(-c2nc(SCC(=O)Nc3ccc(C)cc3)c(-c3ccc(F)cc3)[nH]2)cc(OC)c1OC,"inconclusive: 31.6 µM [inhibitor, partial curve]",–
CC(C)(C)C(=O)[C@@H]1[C@@H]2C(=O)N(C3CCCCC3)C(=O)[C@@H]2[C@H]2c3ccccc3C=CN12,"inconclusive: 100 µM [inhibitor, partial curve]",–
CC(=O)CC[N+](C)(C)C,–,inactive: -0.694%
Cc1cc(=O)oc2c(CN3CCCCC3)c(O)c(Cl)cc12,–,inactive: 4.35%
c1ccc(-c2nc(SCc3nc4ccccc4[nH]3)c3oc4ccccc4c3n2)cc1,–,inactive: -26.2%
COc1nc2ccccc2nc1CCC(=O)O,"inconclusive: 56.2 µM [inhibitor, partial curve, poor fit]",–

Structure (SMILES),Potency,"activity change, negative = inhibition"
N#Cc1c(N)sc(=S)c2c1CCCCC2,active: 44.7 µM,–
CC(=O)N1CCc2c(sc3nc(SCC(C)C)n(-c4ccc(C)c(Cl)c4)c(=O)c23)C1,"inconclusive: 22.4 µM [inhibitor, full curve]",–
CCOC(=O)N1CCN(S(=O)(=O)c2ccc(C(=O)NNc3nc4cc(C)cc(C)c4s3)cc2)CC1,"inconclusive: 14.1 µM [inhibitor, full curve]",–
COc1ccc(NC(=S)Nc2cc(-c3ccccc3)[nH]n2)cc1Cl,active: 56.2 µM,–
CC(C)(C)c1ccc(/C=N/NC(=O)Cc2c[nH]c3ccccc23)cc1,"inconclusive: 44.7 µM [inhibitor, full curve]",–
N#Cc1c(NC(=O)Cn2nc(C(F)(F)F)c3c2CCCC3)sc2c1CCC2,"inconclusive: 89.1 µM [inhibitor, single point]",–
Cc1nc2scc(C)n2c(=O)c1S(=O)(=O)Nc1ccc(N2CCN(S(C)(=O)=O)CC2)cc1,"inconclusive: 39.8 µM [inhibitor, partial curve]",–
COC(=O)c1ccc(C2c3[nH]c4ccccc4c3C[C@H]3C(=O)N(C4CCN(Cc5ccccc5)CC4)CC(=O)N23)cc1 (stereo not given in full),"inconclusive: 17.8 µM [inhibitor, full curve]",–
N#Cc1nc(-c2ccc(OCc3ccccc3)cc2)oc1NCCCn1ccnc1,active: 28.2 µM,–
CC(=O)c1cccc(N2Cc3ccccc3C2=NC(=O)CCl)c1,active: 35.5 µM,–
Cn1c(CNC(=O)OC(C)(C)C)nnc1SCc1c(Cl)cccc1Cl,"inconclusive: 89.1 µM [inhibitor, single point]",–
CC1CCN(c2nn3c(=O)c(C(=O)NCCc4ccccc4)cnc3s2)CC1,–,inactive: 0.649%
Cc1ccccc1NS(=O)(=O)c1c(C(=O)N2CCCCCC2)c(C)n(C)c1C,–,inactive: -26.7%
CCc1cc2c(C)ccc(C)c2nc1SCC(=O)Nc1c[nH]c(=O)[nH]c1=O,"inconclusive: 79.4 µM [inhibitor, partial curve]",–
CCN(CC)CCNc1ccc(CO)c2sc3ccccc3c(=O)c12,"inconclusive: 56.2 µM [inhibitor, partial curve]",–
C/C(=N\NC(=O)c1cccs1)c1cccnc1,active: 17.8 µM,–
O=C(NNc1cccc(Cl)n1)Nc1cccc(Cl)c1,–,inactive: -2.03%
CCC(C)Sc1cc(-c2nc3ccccn3c2NC2CCCCC2)ccc1OC (stereo not given),active: 79.4 µM,–
COc1ccc(N=Nc2ccc(CO)cc2)cc1,"inconclusive: 28.2 µM [inhibitor, full curve]",–
COc1ccc(NC(=O)CN(c2cc(C)cc(C)c2)S(=O)(=O)c2c(C)n[nH]c2C)cc1,active: 50.1 µM,–
NNC(=S)Nc1ccc(Cl)cc1,"inconclusive: 3.98 µM [inhibitor, full curve, poor fit]",–
CC(C)N(C(=O)[C@H]1C[C@H](CC(=O)NCC23CC4CC(CC(C4)C2)C3)C(=O)N2CCc3c([nH]c4cc(-c5ccco5)ccc34)[C@]12C)C(C)C,"inconclusive: 28.2 µM [inhibitor, partial curve]",–
